Measurements reported in PubChem BioAssay AID1346428 (National Center for Advancing Translational Sciences (NCATS), 2018).
About 1,200 (2.5%) of roughly 48,000 compounds were called active. Not shown: some 2% with an inconclusive outcome.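 Rule for the calls: active = activation of at least 60% and not above a set upper limit (about 1 call in 100 departs from these limits); inconclusive = activation of 40% to 60%, or above that upper limit; inactive = activation under 40%.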 The list shows a part of the results.

biological target: Probable G-protein coupled receptor 32 (Homo sapiens) (UniProt O75388); experiment: qHTS for Agonists of Human Resolvin D1 Receptor DRV1; conditions: CHO-K1 GPR32 beta-arrestin PathHunter luminescence, 90 min; at 76.9 µM; active compounds read high; zero percent set by DMSO-only wells; note: 0% is about no effect
Chain of UniProt O75388 (O75388 whole entry, looked up, the tested form may be a part): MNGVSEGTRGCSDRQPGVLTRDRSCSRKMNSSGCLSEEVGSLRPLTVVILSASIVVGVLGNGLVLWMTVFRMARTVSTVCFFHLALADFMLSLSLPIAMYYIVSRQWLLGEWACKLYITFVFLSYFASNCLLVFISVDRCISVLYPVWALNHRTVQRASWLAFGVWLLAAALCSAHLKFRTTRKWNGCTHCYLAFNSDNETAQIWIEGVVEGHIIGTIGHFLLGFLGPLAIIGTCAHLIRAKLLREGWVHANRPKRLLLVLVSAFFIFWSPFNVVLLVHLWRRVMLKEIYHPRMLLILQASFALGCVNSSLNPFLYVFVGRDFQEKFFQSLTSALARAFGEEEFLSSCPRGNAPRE
Summary of the method: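 Agonism was scored as beta-arrestin recruitment to ProLink-fused GPR32 in stably transfected CHO-K1 cells, giving a chemiluminescent beta-Gal signal; compounds were incubated 90 min at 37 °C.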

activation, active:
O=c1[nH]cnc2nc[nH]c12 82%

activation, inactive:
COC(=O)c1c(-c2cccs2)csc1NC(=O)c1ccc(Cl)cc1 -8.52%
COCCN1C(=O)c2[nH]nc(-c3ccccc3O)c2C1c1ccc(OCc2ccccc2)c(OC)c1 (configuration not stated) -14.3%
COC(=O)c1cc(S(=O)(=O)NCC2CCN(Cc3cc(C)ccc3C)CC2)c[nH]1 -12.7%
COc1ccc(-c2cn3c(n2)sc2cc(C(=O)NCc4ccccc4OC)ccc23)cc1 -1.04%
COc1ccccc1Nc1nn2c(=O)c3ccc(C(=O)NCc4cccs4)cc3nc2s1 -6.12%
COc1ccc(N2CCN(C(=O)c3ccc(C)c(NC(=O)c4nsc5ccccc45)c3)CC2)cc1 -17.8%
COc1ccc(OC)c(S(=O)(=O)NCCc2sc(-c3ccc(C)cc3)nc2C)c1 22.7%
CCOC(=O)c1c(NC(=O)/C=C/c2ccccc2)sc2c1CCCC2 20.1%
COc1cccc(Cn2c(CNC(=O)C(C)C)nc3cccnc32)c1 -1.91%
Cc1ccc2c(=O)c(C(=O)c3ccc(F)cc3)cn(CC(=O)NCc3ccccc3)c2n1 5.4%
COc1ccc(C(=O)Nc2ccc(-c3nc4ncccc4o3)cc2)cc1 12.4%
CC(C)(C)OC(=O)N1CCC(c2c(C(=O)NCc3ccccn3)cnn2-c2ccccc2)CC1 -16.3%
Cn1c(SCC(=O)N2CCCc3ccccc32)ncc(C(=O)Nc2ccc(Cl)cc2)c1=O 4.01%
COc1cccc(CN(Cc2ccco2)c2cnc(S(C)(=O)=O)nc2C(=O)Nc2cccc(Cl)c2C)c1 -15%
CCc1nc2nc(C)cc(Nc3ccc(OC)cc3)n2n1 3.68%
CN(C1CCCCC1)S(=O)(=O)c1ccc2c(c1)c(=O)c(C(=O)NCCc1ccc(Cl)cc1)cn2C -3.24%
Cc1ccc(-c2nnc(Nc3cccc(Cl)c3)c3ccccc23)cc1S(=O)(=O)NCC1CCCO1 (configuration not stated) -22.9%
CCS(=O)(=O)N1CCC(C(=O)NCCC(C)C)CC1 -10.2%
CSCCC(NS(=O)(=O)c1ccc2c(c1)oc(=O)n2C)C(=O)NCCc1ccc(C)cc1 (configuration not stated) -3.59%
O=S(=O)(NCCSc1nnnn1-c1ccccc1)c1ccc(F)cc1 8.1%
Cc1ccc(-c2onc(C)c2C)cc1S(=O)(=O)NCc1ccco1 1%
COc1cccc(OCCCCn2c(-c3ccc(Cl)cc3)nc3ccccc3c2=O)c1 -11.3%
CCOc1cc(C(=O)Nc2cccc(-c3nc4ccccc4o3)c2)cc(OCC)c1OCC 16.7%
Cc1ccc(S(=O)(=O)c2cnc(SCC(=O)Nc3ccc4c(c3)OCCO4)[nH]c2=O)cc1 28.8%
O=C(c1cccc([N+](=O)[O-])c1)N1c2ncnn2C2(CCCCC2)[C@@H]2CCCC[C@@H]21 -17.9%
CC(=O)Nc1ccc(S(=O)(=O)NC2(C(F)(F)F)NC(=O)N(c3ccc(C)cc3)C2=O)cc1 (configuration not stated) -3.69%
Cc1ccc(CNC(=O)c2ccc(CSCc3ccc(Cl)cc3)o2)cc1 -13.5%
CCc1ccccc1NC(=O)CN1C(=O)CCc2cc(S(=O)(=O)N3CCCCC3)ccc21 8.97%
CCCCNS(=O)(=O)c1ccc2nc(NC(=O)c3cccnc3)sc2c1 42.3%
C/C(=C(/OCCOc1ccc(Cl)cc1)c1ccc(Cl)cc1Cl)n1ccnc1 -66%
Cc1ccc(-n2ccnc(NCc3ccccc3)c2=O)cc1C 42.9%
O=C(NCc1cccc(F)c1)C1=Cc2cc(Br)ccc2OC1 4.5%
CCOc1ccccc1C(=O)Nc1c(NC)c2ccccc2oc1=O -8.79%
Cn1c(=O)oc2cc(S(=O)(=O)N3CCCC(C(=O)Nc4ccc(Br)cc4F)C3)ccc21 (configuration not stated) -8.96%
O=C(Nc1cc(C(F)(F)F)ccc1Cl)c1cc2nc(-c3ccc4c(c3)OCO4)cc(C(F)(F)F)n2n1 -10.2%
COc1ccc(OCCCn2c(=O)oc3ccc(C)cc32)cc1 -26.3%
COc1ccc(N(CC(=O)NCc2ccc(F)cc2)S(=O)(=O)c2c(C)n[nH]c2C)cc1 4.01%
O=C(CSc1nc2c(oc3ccccc32)c(=O)n1Cc1ccco1)Nc1cccc(Cl)c1 33.6%
Cc1cn(C)c(CC(=O)Nc2cccc(Cl)c2C)c1C(=O)O -3.1%
Cc1cc(C)cc(NC(=O)CN2C(=O)c3ccccc3Sc3ccc(C(=O)N4CCOCC4)cc32)c1 -8%
COc1cc2c(cc1NS(=O)(=O)c1cccc(C#N)c1)n(C)c(=O)n2C 6.99%
